In a collection of fitness landscapes (doi:10.1016/j.celrep.2020.107928):
Whole data set: some 81,000 sequences, median “one-hybrid fitness for binding NBS DNA” near -0.1, cut for the highest 2% near 0.36. Some of the results follow.

B1: Caulobacter ParB omega fusion; a variant is named by its letters at X, in order, B8GW30 (parent)
chain: MESVVVGEPGMSEGRRGLGRGLSALLGEVDAAPAQAPGEQLGGSREAPIEILQRNPDQPRRTFREEDLEDLSNSIREKGVLQPILVRPSPDTAGEYQIVAGERAWRAAQRAGLKTVPIMVRELDDLAVLEIGIIENVQRADLNVLEEALSYKVLMEKFERTQENIAQTIGKSXSHVANXMRLLXLPDEVQSYLVSGELTAXHARAIAAAADPVALAKQIIEGGLSVRETEALARKAPNLSAGKSKGGRPPRVKDTDTQALESDLSSVLGLDVSIDHRGSTGTLTITYATLEQLDDLCNRLTRGI

Variants of: B1
Test: one-hybrid fitness for binding NBS DNA (the Noc-binding site; scaled: cognate 1, non-cognate 0); higher = stronger binding
Details: with NBS DNA site
Method in brief: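 Caulobacter ParB libraries with four specificity codons randomised were screened by bacterial one-hybrid selection in the E. coli USO strain, using a HIS3 reporter whose site lies 19 bp from the promoter. Selection ran for 48 hours at 37°C on M9 lacking histidine, with 0.1 mM IPTG and 5 mM 3-AT. Plasmids were Illumina-sequenced before and after selection, three replicate libraries were pooled, and variants with under 10 reads were dropped. Fitness is the log change in each variant's read ratio to wild type, rescaled against the cognate and non-cognate sites.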

Variant	one-hybrid fitness for binding NBS DNA
KRAV	≤ 0.2
WRCT	≤ 0.2
PLPL	≤ 0.2
YKES	≤ 0.2
ITPR	≤ 0.2
QATC	≤ 0.2
LQLT	≤ 0.2
PGES	≤ 0.2
QYSK	≤ 0.2
QKYV	≤ 0.2
HHWT	≤ 0.2
PLRH	≤ 0.2
DEDT	≤ 0.2
HDPL	≤ 0.2
LPVW	≤ 0.2
LPTK	≤ 0.2
FQNL	≤ 0.2
NLAD	≤ 0.2
HMNE	≤ 0.2
YVRD	≤ 0.2
KLSS	≤ 0.2
RPSN	≤ 0.2
GLMT	≤ 0.2
FCNV	≤ 0.2
PPTA	≤ 0.2
KHQF	≤ 0.2

Variant	one-hybrid fitness for binding NBS DNA
VTVM	≤ 0.2
ASAD	≤ 0.2
QTGP	≤ 0.2
GSSS	≤ 0.2
MWGG	≤ 0.2
TNGP	≤ 0.2
MAKI	≤ 0.2
YPGT	≤ 0.2
HRAT	≤ 0.2
MTAD	≤ 0.2
SPDA	≤ 0.2
QPYI	≤ 0.2
ASLF	≤ 0.2
DAAY	≤ 0.2
LTVV	≤ 0.2
TKWR	≤ 0.2
TYHD	≤ 0.2
GDKK	≤ 0.2
GWLA	≤ 0.2
HFPS	≤ 0.2
QVKC	0.2
NRHQ	≤ 0.2
DLPN	≤ 0.2
RIIG	≤ 0.2
KKDS	≤ 0.2
VTQM	≤ 0.2

Variant	one-hybrid fitness for binding NBS DNA
LMMC	≤ 0.2
APEC	≤ 0.2
TVPG	≤ 0.2
PGYR	≤ 0.2
MKSA	≤ 0.2
GGCR	≤ 0.2
RIFP	≤ 0.2
VYDR	≤ 0.2
RNAF	≤ 0.2
SSSR	≤ 0.2
SQYG	≤ 0.2
TQID	≤ 0.2
QVLC	≤ 0.2
QWMY	≤ 0.2
TQHS	≤ 0.2
CEGG	≤ 0.2
HPWF	≤ 0.2
QCVL	≤ 0.2
ITNT	≤ 0.2
YSGG	≤ 0.2
GLVV	≤ 0.2
PVFY	≤ 0.2
PNIL	≤ 0.2
MYGL	≤ 0.2
ESAS	≤ 0.2
PNES	≤ 0.2

Variant	one-hybrid fitness for binding NBS DNA
AHRK	≤ 0.2
GRNH	≤ 0.2
HAKV	≤ 0.2
PIAR	≤ 0.2
EQGS	≤ 0.2
HVCY	≤ 0.2
RDHT	≤ 0.2
LPLK	≤ 0.2
LYHC	≤ 0.2
MESS	≤ 0.2
FVLR	≤ 0.2
DLSS	≤ 0.2
SWKS	≤ 0.2
MPSI	≤ 0.2
LELS	≤ 0.2
WINC	≤ 0.2
CRMC	≤ 0.2
LTRC	≤ 0.2
LSDW	≤ 0.2
QHPI	≤ 0.2
PDWN	≤ 0.2
YRNL	≤ 0.2
FFAI	≤ 0.2
WMTT	≤ 0.2
FTRL	≤ 0.2
RCGS	0.482

Variant	one-hybrid fitness for binding NBS DNA
QLQD	≤ 0.2
GHLL	≤ 0.2
GAAR	≤ 0.2
QSMW	≤ 0.2
NYKR	≤ 0.2
NAVG	≤ 0.2
CDRS	≤ 0.2
STAA	≤ 0.2
RNTD	≤ 0.2
QPPF	≤ 0.2
ARSM	≤ 0.2
FGDW	≤ 0.2
EWCS	≤ 0.2
APRT	≤ 0.2
ANHM	≤ 0.2
TVDM	≤ 0.2
CTDA	≤ 0.2
HLQA	≤ 0.2
GGTW	≤ 0.2
QIWL	≤ 0.2
HKRK	≤ 0.2
QFGP	≤ 0.2
EVSD	≤ 0.2
AFRK	≤ 0.2
WLMR	≤ 0.2
KTKY	≤ 0.2

Variant	one-hybrid fitness for binding NBS DNA
YSYS	≤ 0.2
EHFG	≤ 0.2
DFVD	≤ 0.2
EMQE	≤ 0.2
ARYN	≤ 0.2
QTNT	0.71
MMPH	≤ 0.2
WSCT	≤ 0.2
LVLP	≤ 0.2
RINS	0.445
TMSY	≤ 0.2
KDQS	≤ 0.2
MLPN	≤ 0.2
SILI	≤ 0.2
YHYL	≤ 0.2
LSLQ	≤ 0.2
MRTF	≤ 0.2
ECAV	≤ 0.2
AVWG	≤ 0.2
YTLG	≤ 0.2
VSQA	≤ 0.2
LYVR	≤ 0.2
MRRG	≤ 0.2
